According to PMC11995724, “Antibiotic target discovery by integrated phenotypic and activity-based profiling of electrophilic fragments” (Cell chemical biology, 2025):
The whole screen tested about 3,200 compounds, of which about 110 (3.4%) showed an effect of 50% or more. The list shows a part of the results.

What follows are molecules tested on T1, V. cholerae SAD30. Conditions: relative growth, OD600, LB; 25 µM; inhibitor.
T1 construct: SAD30
Set-up: species or system S. aureus MSSA476 (TSB) or V. cholerae SAD30 (LB); 384-well bacterial growth screen at 25 uM, OD600 relative to DMSO control

| SMILES | % of control remaining |
| --- | --- |
| Cc1cc(C)n2c(-c3c(Cl)cccc3NC(=O)CCl)nnc2n1 [5-M16, 2-chloro-N-(3-chloro-2-{5,7-dimethyl-[1,2,4]triazolo[4,3-a]pyrimidin-3-yl}phenyl)acetamide] | 101.376% |
| C=CC(=O)NCc1nc(-c2ccc(F)cc2)n[nH]1 [3-D04, N-{[3-(4-fluorophenyl)-1H-1,2,4-triazol-5-yl]methyl}prop-2-enamide] | 110.086% |
| Cc1ccc(Oc2ccc(Cl)cc2NC(=O)CCl)cc1 [4-A21, 2-chloro-N-[5-chloro-2-(4-methylphenoxy)phenyl]acetamide] | 92.1285% |
| C=CC(=O)N1CCCCC1c1nc2ccccc2o1 (stereo not shown) [3-O20, 1-[2-(1,3-benzoxazol-2-yl)piperidin-1-yl]prop-2-en-1-one] | 99.853% |
| CC(Cl)C(=O)NCC1=CCCOC1 (stereo not shown) [7-I05, 2-chloro-N-[(5,6-dihydro-2H-pyran-3-yl)methyl]propanamide] | 83.5288% |
| N#CC(=Cc1ccc(N2CCCCCC2)cc1)C(=O)NCC1CCCO1 (stereo not shown) [9-H15, 3-[4-(azepan-1-yl)phenyl]-2-cyano-N-[(oxolan-2-yl)methyl]prop-2-enamide] | 57.7158% |
| N#CC(=Cc1cccc(O)c1)C(=O)Nc1ccccc1C(F)(F)F [9-A20, 2-cyano-3-(3-hydroxyphenyl)-N-[2-(trifluoromethyl)phenyl]prop-2-enamide] | 87.4915% |
| C=CC(=O)NC1CC2CCC(C1)N2S(C)(=O)=O (stereo not shown) [2-A18, N-{8-methanesulfonyl-8-azabicyclo[3.2.1]octan-3-yl}prop-2-enamide] | 92.975% |
| CC(Cl)C(=O)NC(c1ccccc1)c1ccccc1 (stereo not shown) [5-A21, 2-chloro-N-(diphenylmethyl)propanamide] | 85.0688% |
| O=C(CCl)Nc1cc(-n2nnnc2C2CC2)ccc1F [6-E09, 2-chloro-N-[5-(5-cyclopropyl-1H-1,2,3,4-tetrazol-1-yl)-2-fluorophenyl]acetamide] | 90.0938% |
| C=CC(=O)N1CCC(C(=O)NCC2([S+](C)[O-])CCC2)CC1 (stereo not shown) [2-D18, N-[(1-methanesulfinylcyclobutyl)methyl]-1-(prop-2-enoyl)piperidine-4-carboxamide] | 92.203% |
| C=CCN(Cc1cccs1)C(=O)CCl [5-B06, 2-chloro-N-(prop-2-en-1-yl)-N-[(thiophen-2-yl)methyl]acetamide] | 97.1735% |
| CC1CN(C(=O)C(C#N)=Cc2c(Cl)cccc2Cl)CC(C)O1 (stereo not shown) [8-O12, 3-(2,6-dichlorophenyl)-2-(2,6-dimethylmorpholine-4-carbonyl)prop-2-enenitrile] | 70.4963% |
| CC(C)C(C)N(Cc1ccns1)C(=O)CCl (stereo not shown) [5-M12, 2-chloro-N-(3-methylbutan-2-yl)-N-[(1,2-thiazol-5-yl)methyl]acetamide] | 91.2893% |
| CN(c1ccc(C(=O)CCl)cc1)S(C)(=O)=O [10-F19, N-[4-(2-chloroacetyl)phenyl]-N-methylmethanesulfonamide] | 14.0269% |
| COc1ccc(NC(=O)C(C)Cl)cc1Cl (stereo not shown) [4-I14, 2-chloro-N-(3-chloro-4-methoxyphenyl)propanamide] | 91.4384% |
| C=CC(=O)Nc1cc(NC(=O)C2CC3CCC2CC3)ccc1F (stereo not shown) [1-C17, N-[4-fluoro-3-(prop-2-enamido)phenyl]bicyclo[2.2.2]octane-2-carboxamide] | 73.6921% |
| CS(=O)(=O)N1CCc2cc(C(=O)CCl)ccc21 [10-B19, 2-chloro-1-(1-methanesulfonyl-2,3-dihydro-1H-indol-5-yl)ethan-1-one] | 18.0791% |
| CC(Cl)C(=O)Nc1ccc(Cl)cc1Cl (stereo not shown) [4-L17, 2-chloro-N-(2,4-dichlorophenyl)propanamide] | 94.1988% |
| C=CC(=O)N1CCC(C(=O)N2CCCC(c3cnn(C)c3)C2)CC1 (stereo not shown) [2-N16, 1-{4-[3-(1-methyl-1H-pyrazol-4-yl)piperidine-1-carbonyl]piperidin-1-yl}prop-2-en-1-one] | 88.6519% |
| C=CC(=O)N(CC)CC(=O)N1CCN(c2ccc(C#N)cc2F)CC1 [3-D03, N-{2-[4-(4-cyano-2-fluorophenyl)piperazin-1-yl]-2-oxoethyl}-N-ethylprop-2-enamide] | 125.084% |
| CN(C(=O)CCl)C(c1ccc(Cl)cc1)C(F)(F)F (stereo not shown) [7-J16, 2-chloro-N-[1-(4-chlorophenyl)-2,2,2-trifluoroethyl]-N-methylacetamide] | 81.8107% |
| CNC(=O)CC(NC(=O)CCl)c1ccc(F)cc1F (stereo not shown) [4-I16, 3-(2-chloroacetamido)-3-(2,4-difluorophenyl)-N-methylpropanamide] | 98.6845% |
| COc1ccc(C=C(C#N)C(=O)Nc2cc(C)ccc2C)cc1Cl [9-B22, 3-(3-chloro-4-methoxyphenyl)-2-cyano-N-(2,5-dimethylphenyl)prop-2-enamide] | 94.6975% |
| C=CC(=O)N1CCc2c(ncn2-c2ccccc2)C1 [3-N09, 1-{1-phenyl-1H,4H,5H,6H,7H-imidazo[4,5-c]pyridin-5-yl}prop-2-en-1-one] | 95.0891% |
| COc1ccc(Cl)cc1N1C(=O)C=CC1=O [10-K10, 1-(5-chloro-2-methoxyphenyl)-2,5-dihydro-1H-pyrrole-2,5-dione] | 24.1574% |
| C=CC(=O)NCc1ccc(C(=O)N2CCC(c3ccn[nH]3)CC2)cc1 [3-K08, N-({4-[4-(1H-pyrazol-5-yl)piperidine-1-carbonyl]phenyl}methyl)prop-2-enamide] | 92.0897% |
| CCOC(=O)c1c(C)[nH]c(C(=O)C(C)Cl)c1C (stereo not shown) [10-B22, ethyl 5-(2-chloropropanoyl)-2,4-dimethyl-1H-pyrrole-3-carboxylate] | 103.799% |
